The supplement of paper PMC7826260
Some of the results follow. One pool of 16,384 single-stranded DNAs met each Rep nickase domain in vitro (3 µM enzyme, 1 h, 37 °C); shown is the middle of each 90-letter strand. The score is log2 (uncut reads / reads without enzyme); strong cutting gives strongly negative numbers. There is no active / inactive call. Counts are relative to all reads; uncut strands gain when others are lost, and binding without cutting may add a little.

Each sequence was assayed on T1, Rep nickase domain of Muscovy duck circovirus (assay: uncleaved DNA left, log2 of reads against the no-enzyme library (log2 ratio); higher = less cleavage (more negative = more Rep cleavage of the k-mer); sequences stand for … in CTCGTCCG…ACCGGAGA).
T1 sequence (protein, residues 1-111, tag omitted): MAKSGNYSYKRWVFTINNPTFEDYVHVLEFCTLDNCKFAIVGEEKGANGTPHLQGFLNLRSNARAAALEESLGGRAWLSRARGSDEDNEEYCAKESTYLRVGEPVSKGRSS
Protocol: (§1)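 A pool of 90-nt single-stranded DNAs with seven random bases just before the constant AC of the nick site (name = the seven bases) was cut by 3 µM recombinant His6-SUMO-tagged Rep nickase domain (300 nM DNA, 50 mM HEPES pH 8.0, 50 mM NaCl, 1 mM MnCl2, 1 h, 37 °C, three replicates). Uncut DNA was amplified and sequenced.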

| Sequence | uncleaved DNA left (log2) |
| --- | --- |
| AGGCTCC | -0.0881 |
| TCTTCCG | -0.0869 |
| CGAGAAC | 0.012 |
| TCGAGGC | 0.00513 |
| GTGAAAT | 0.235 |
| TTAGCAT | -0.0478 |
| GTTGCGC | 0.0448 |
| ACCTGAT | -0.0365 |
| CGTTGGG | -0.0927 |
| TTAATTT | -0.0885 |
| TCCCCCC | -0.22 |
| AGCATTG | -0.0663 |
| TTTCGAA | 0.0793 |
| ATATGGG | 0.0464 |
| AATAGTC | 0.0191 |
| CTGGTTG | 0.052 |
| TCTTCTT | -2.88 |
| CATCGCA | -0.0729 |
| CGTTAAC | -0.0666 |
| TCTGAAT | 0.144 |

| Sequence | uncleaved DNA left (log2) |
| --- | --- |
| ATAACTC | -0.0309 |
| TCATCCT | -1.32 |
| GACCCGG | -0.158 |
| TGAGGAA | -0.0666 |
| CCCGCGG | -0.0183 |
| CGAGGAG | -0.00599 |
| AGAGAAA | 0.0526 |
| GGCCAGG | 0.14 |
| TTCAAGC | -0.0265 |
| CAAGACT | -0.0667 |
| GCTGCGC | -0.186 |
| ATTGGGG | 0.242 |
| AGAAGTG | 0.242 |
| TCCACTT | -0.1 |
| AGACCCC | 0.0862 |
| ATAGAGA | 0.194 |
| ACTGATG | -0.0142 |
| AACGTTT | -0.0581 |
| GGGTCTC | 0.0539 |
| CTTCGTG | 0.0484 |

The sequences below were run on T2, Rep nickase domain of banana bunchy top virus in the same assay as above.
T2 sequence (protein, residues 1-94, tag omitted): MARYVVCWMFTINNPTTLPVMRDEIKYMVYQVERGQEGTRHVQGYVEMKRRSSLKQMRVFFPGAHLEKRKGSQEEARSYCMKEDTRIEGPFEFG
Protocol: as §1

| Sequence | uncleaved DNA left (log2) |
| --- | --- |
| AGGCTCC | -0.0957 |
| TCTTCCG | -0.0806 |
| CGAGAAC | -0.0888 |
| TCGAGGC | 0.015 |
| GTGAAAT | 0.237 |
| TTAGCAT | -0.0153 |
| GTTGCGC | -0.108 |
| ACCTGAT | 0.184 |
| CGTTGGG | -0.167 |
| TTAATTT | 0.022 |
| TCCCCCC | -0.0388 |
| AGCATTG | -0.0611 |
| TTTCGAA | -0.0672 |
| ATATGGG | -0.00523 |
| AATAGTC | -0.105 |
| CTGGTTG | -0.0234 |
| TCTTCTT | -0.304 |
| CATCGCA | -0.00986 |
| CGTTAAC | -0.0552 |
| TCTGAAT | 0.136 |

| Sequence | uncleaved DNA left (log2) |
| --- | --- |
| ATAACTC | 0.0368 |
| TCATCCT | -0.12 |
| GACCCGG | 0.00533 |
| TGAGGAA | -0.0502 |
| CCCGCGG | 0.0459 |
| CGAGGAG | 0.0201 |
| AGAGAAA | -0.0991 |
| GGCCAGG | 0.107 |
| TTCAAGC | -0.102 |
| CAAGACT | -0.0954 |
| GCTGCGC | -0.11 |
| ATTGGGG | 0.0564 |
| AGAAGTG | 0.12 |
| TCCACTT | -0.132 |
| AGACCCC | 0.113 |
| ATAGAGA | 0.105 |
| ACTGATG | -0.0684 |
| AACGTTT | -0.125 |
| GGGTCTC | 0.12 |
| CTTCGTG | 0.0108 |

What follows are sequences tested on T3, Rep nickase domain of cabbage leaf curl virus in the same assay as above.
T3 sequence (protein, residues 1-116, tag omitted): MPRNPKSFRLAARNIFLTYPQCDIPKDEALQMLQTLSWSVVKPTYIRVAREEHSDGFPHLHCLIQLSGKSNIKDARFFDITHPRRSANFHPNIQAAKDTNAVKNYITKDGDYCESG
Protocol: as §1

| Sequence | uncleaved DNA left (log2) |
| --- | --- |
| AGGCTCC | 0.197 |
| TCTTCCG | -0.904 |
| CGAGAAC | 0.0614 |
| TCGAGGC | 0.16 |
| GTGAAAT | 0.499 |
| TTAGCAT | 0.127 |
| GTTGCGC | -0.753 |
| ACCTGAT | 0.0268 |
| CGTTGGG | -0.654 |
| TTAATTT | 0.212 |
| TCCCCCC | 0.0729 |
| AGCATTG | -0.156 |
| TTTCGAA | -0.045 |
| ATATGGG | -0.552 |
| AATAGTC | -0.0606 |
| CTGGTTG | -0.514 |
| TCTTCTT | -0.0648 |
| CATCGCA | -0.401 |
| CGTTAAC | -0.25 |
| TCTGAAT | 0.221 |

| Sequence | uncleaved DNA left (log2) |
| --- | --- |
| ATAACTC | -0.264 |
| TCATCCT | -0.504 |
| GACCCGG | 0.431 |
| TGAGGAA | 0.275 |
| CCCGCGG | 0.462 |
| CGAGGAG | -0.384 |
| AGAGAAA | 0.124 |
| GGCCAGG | 0.487 |
| TTCAAGC | 0.0666 |
| CAAGACT | -0.258 |
| GCTGCGC | -0.664 |
| ATTGGGG | 0.326 |
| AGAAGTG | -0.195 |
| TCCACTT | -0.0805 |
| AGACCCC | 0.861 |
| ATAGAGA | 0.392 |
| ACTGATG | -0.455 |
| AACGTTT | -0.418 |
| GGGTCTC | 0.595 |
| CTTCGTG | -0.726 |

The sequences below were run on T4, Rep nickase domain of chickpea chlorotic dwarf virus in the same assay as above.
T4 sequence (protein, residues 1-124, tag omitted): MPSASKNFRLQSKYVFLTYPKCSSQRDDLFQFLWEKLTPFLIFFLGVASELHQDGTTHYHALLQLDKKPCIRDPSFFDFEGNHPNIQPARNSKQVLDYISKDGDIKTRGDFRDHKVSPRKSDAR
Protocol: as §1

| Sequence | uncleaved DNA left (log2) |
| --- | --- |
| AGGCTCC | 0.528 |
| TCTTCCG | -0.51 |
| CGAGAAC | 0.13 |
| TCGAGGC | 0.27 |
| GTGAAAT | 1.31 |
| TTAGCAT | 0.205 |
| GTTGCGC | 0.317 |
| ACCTGAT | 0.61 |
| CGTTGGG | -0.396 |
| TTAATTT | -2.16 |
| TCCCCCC | -0.298 |
| AGCATTG | 0.47 |
| TTTCGAA | -0.278 |
| ATATGGG | -0.516 |
| AATAGTC | -0.326 |
| CTGGTTG | -0.358 |
| TCTTCTT | -2.35 |
| CATCGCA | -0.879 |
| CGTTAAC | -1.28 |
| TCTGAAT | -0.0163 |

| Sequence | uncleaved DNA left (log2) |
| --- | --- |
| ATAACTC | -1.39 |
| TCATCCT | -2.95 |
| GACCCGG | 1.36 |
| TGAGGAA | 1.25 |
| CCCGCGG | 1.29 |
| CGAGGAG | 0.00889 |
| AGAGAAA | 0.526 |
| GGCCAGG | 1.25 |
| TTCAAGC | -0.102 |
| CAAGACT | -2.03 |
| GCTGCGC | -0.104 |
| ATTGGGG | 0.432 |
| AGAAGTG | -0.227 |
| TCCACTT | -2.15 |
| AGACCCC | 1.81 |
| ATAGAGA | 0.544 |
| ACTGATG | -0.126 |
| AACGTTT | -2.49 |
| GGGTCTC | 1.62 |
| CTTCGTG | -0.703 |

The sequences below were run on T5, Rep nickase domain of faba bean necrotic yellows virus in the same assay as above.
T5 sequence (protein, residues 1-98, tag omitted): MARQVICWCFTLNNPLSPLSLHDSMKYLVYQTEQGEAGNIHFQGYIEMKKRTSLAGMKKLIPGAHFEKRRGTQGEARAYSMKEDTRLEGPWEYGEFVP
Protocol: as §1

| Sequence | uncleaved DNA left (log2) |
| --- | --- |
| AGGCTCC | -0.0232 |
| TCTTCCG | -0.0239 |
| CGAGAAC | -0.0129 |
| TCGAGGC | -0.085 |
| GTGAAAT | 0.124 |
| TTAGCAT | -0.0617 |
| GTTGCGC | 0.0244 |
| ACCTGAT | 0.175 |
| CGTTGGG | -0.021 |
| TTAATTT | -0.093 |
| TCCCCCC | -0.0256 |
| AGCATTG | -0.0263 |
| TTTCGAA | -0.0216 |
| ATATGGG | 0.0889 |
| AATAGTC | 0.0367 |
| CTGGTTG | 0.0483 |
| TCTTCTT | 0.0492 |
| CATCGCA | 0.0536 |
| CGTTAAC | -0.189 |
| TCTGAAT | 0.143 |

| Sequence | uncleaved DNA left (log2) |
| --- | --- |
| ATAACTC | -0.0624 |
| TCATCCT | -0.0899 |
| GACCCGG | -0.196 |
| TGAGGAA | 0.106 |
| CCCGCGG | 0.067 |
| CGAGGAG | -0.0048 |
| AGAGAAA | -0.0186 |
| GGCCAGG | -0.0285 |
| TTCAAGC | -0.0247 |
| CAAGACT | -0.0986 |
| GCTGCGC | 0.034 |
| ATTGGGG | 0.1 |
| AGAAGTG | 0.00466 |
| TCCACTT | -0.0667 |
| AGACCCC | -0.0201 |
| ATAGAGA | 0.198 |
| ACTGATG | 0.00808 |
| AACGTTT | 0.0209 |
| GGGTCTC | -0.0262 |
| CTTCGTG | -0.00336 |
